Data from the supplement of paper PMC11417369.
The other results are listed elsewhere or left out.

tested on: PfAP2-HC AP2 domain (GST-tagged); assay: gcPBM binding intensity (ln(normalized median fluorescence intensity)); higher = stronger DNA binding
Summary of the method: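 GST-fused DNA-binding domains of P. falciparum, expressed in E. coli, were applied at about 25 μg on average for 1 h to an Agilent 4 × 180k array of primer-extended double-stranded 36-bp intergenic genomic probes and negative controls. Binding intensity is the highest Masliner-normalised natural-log median intensity across replicate spots of either probe orientation, measured with Alexa488 anti-GST antibody and a 488 nm scan.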

Compared with “TTTTTAATTTATTAAGAAGTAAAGAATAACTCTTTT [TGCATGCA_negctrl_site101]”, “AAACATTAAAATAACTCACACATTTTTCTAGTCTTC [CACACA_site4612]” is higher in “gcPBM binding intensity (ln)” value: 9.19 for the first, 9.7 for the second.

First: ATATATTTAATATTCACACATAATTATTTTTACTCT [CACACA_site5438]
Second: ATATAATGATAATATTGTACATGTTATATTTCAATA [XGTACX_site8645]
The “gcPBM binding intensity (ln)” value of the first is higher: 9.82 for the first, 9.6 for the second.

First: TATAGATAAGAATATGCACACATTTTATTTTTTTTT [CACACA_site1982]
Second: TTGTAATATCTTGTCACACATATATATATATATATA [CACACA_site4937]
The “gcPBM binding intensity (ln)” value of the first is higher: 9.76 for the first, 9.72 for the second.

First: AGTTTTCCATGTTAATGTACTTAACAATACCATAAT [XGTACX_site209]
Second: ATTTATTCATAGACAACAAGAAAAAAAAAAAAAATT [CACACA_negctrl_site1168]
The “gcPBM binding intensity (ln)” value of the first is higher: 9.61 for the first, 9.49 for the second.

Compared with “TATATCCATATTGTATGTACACATATAATACCAATG [XGTACX_site7230]”, “GTATTATCTTTTAATAGTACATATTTTTTTGAAACA [XGTACX_site4050]” is lower in “gcPBM binding intensity (ln)” value: 9.7 for the first, 9.39 for the second.

First: AATATATTTTTATATTGTACAAAAGAAAAAAAATAT [XGTACX_site1689]
Second: CATATAATATTTGAAACTATATATAAATATAAGGTA [TGCATGCA_negctrl_site19]
The “gcPBM binding intensity (ln)” value of the first is higher: 9.72 for the first, 9.52 for the second.

First: AAAACGGATTCTTTATAAATAAATAAATAAATATAA [XGTACX_negctrl_site157]
Second: ATATATGTATGTTAGACACACATATTATAATATGTT [CACACA_site116]
The “gcPBM binding intensity (ln)” value of the first is lower: 9.43 for the first, 9.82 for the second.

First: AATACATACACAAATACACACACAAATACATACACA [CACACA_site8134]
Second: TTTTTTTTTTTTTTTACACACAAATGTATACTATAT [CACACA_site1787]
The “gcPBM binding intensity (ln)” value of the first is higher: 10.4 for the first, 9.71 for the second.

Compared with “TATTAAATATTCATATGTACATATAGTTTATAAATT [XGTACX_site7455]”, “TATAAATAAATGTGTACACACATTAAAATCAAACGT [CACACA_site2340]” is higher in “gcPBM binding intensity (ln)” value: 9.58 for the first, 10.3 for the second.

Going from “TTTATCAAAAAAAAAAAAAAAAAAAAAAAAAATTGT [CACACA_negctrl_site176]” to “TATATGTTTTATAAATGTACATATACTTAAATATTT [XGTACX_site4753]”, the “gcPBM binding intensity (ln)” value rises from 9.26 to 9.62.

First: TTATGTGCTTTAAAAGTGCATTTTTTTTTTTTTTTT
Second: TTTTTTGTTATGCGGGTGCATATAATAATGTGATGA
The “gcPBM binding intensity (ln)” value of the first is lower: 9.34 for the first, 9.44 for the second.

Compared with “TTATTTGTATCCATTTCACACATTTTATATAGTATC [CACACA_site5989]”, “AATACATAATAACGTTGTACAAAAATTATAATACAT [XGTACX_site6508]” is higher in “gcPBM binding intensity (ln)” value: 9.82 for the first, 10 for the second.

First: ACTATTAAGAATAAAGAAATATGTAATTGTATTTAA [CACACA_negctrl_site516]
Second: TCCTCGCGTAATACTTTTCAAATAAAAAAAATAAAA [TGCATGCA_negctrl_site403]
The “gcPBM binding intensity (ln)” value of the first is higher: 9.51 for the first, 9.01 for the second.

Going from “ATTAAAAATTAATATAAACACACAAAAATTAATAAA [CACACA_site8019]” to “TTTTTTTTTTTTTATTGTACTAGTAGATATATATAC [XGTACX_site3463]”, the “gcPBM binding intensity (ln)” value falls from 9.84 to 9.59.

Going from “CCAATATATACATATATATAGTTATATATATTTCCT [TGCATGCA_negctrl_site38]” to “GTGTCAAATTTTATAACACACAAAAGATTATATAAG [CACACA_site4086]”, the “gcPBM binding intensity (ln)” value rises from 9.67 to 9.72.

Compared with “AAACATACTTGATGCAGTACACATTATAAGCACATA [XGTACX_site3359]”, “TTTTAAAAATTAAAAAAATTAAATGTAAAAAAATGA [CACACA_negctrl_site861]” is lower in “gcPBM binding intensity (ln)” value: 9.76 for the first, 9.36 for the second.

First: ATATATGTATATGTGTGTACATATATGTTTATTATT [XGTACX_site6043]
Second: GGACTTAAATAAAATGGTACAGAATTTATATATATT [XGTACX_site8214]
The “gcPBM binding intensity (ln)” value of the first is higher: 9.9 for the first, 9.49 for the second.

Compared with “TAATGGAATACATATAGTACATAATATTACATACAT [XGTACX_site5737]”, “TTACACAAACAAATTATGGACACATAAGTAAAAGGA [CACACA_negctrl_site1622]” is higher in “gcPBM binding intensity (ln)” value: 9.76 for the first, 9.89 for the second.

Compared with “GAAAAAAGAAAAAAAAGTACATATATTTAATAAGAC [XGTACX_site6912]”, “TTATCCATAAAAAAGTGTACGCACTAAAATTGAAAA [XGTACX_site5460]” is lower in “gcPBM binding intensity (ln)” value: 9.78 for the first, 9.64 for the second.

Going from “TATAATTCATATGAAACACACATTTATTTTAATTAC [CACACA_site3686]” to “TAGGCGTTTAATAAAAGTACCCACACATATATTATT [XGTACX_site1932]”, the “gcPBM binding intensity (ln)” value rises from 9.71 to 9.87.

First: TTTATTATCGTTCTCATACACACAAAATATACATAC [CACACA_site2642]
Second: AATTCAAATATAAATACACACACATAGCTACAAAAT [CACACA_site9386]
The “gcPBM binding intensity (ln)” value of the first is lower: 9.99 for the first, 10.3 for the second.

Going from “ATTTAACAACTTCAAACACACAATATATATATATAT [CACACA_site2093]” to “AAATATATATGTGGGGGTACTAATAAAAAAACCCCT [XGTACX_site2657]”, the “gcPBM binding intensity (ln)” value falls from 9.72 to 9.61.

With “CATAAATTAATAGTCACACACGTATTTTTTATATAT [CACACA_site2526]” the “gcPBM binding intensity (ln)” value was 9.94.
